Laboratory results reported in PubChem BioAssay AID485294 (National Center for Advancing Translational Sciences (NCATS), 2010).
The whole screen tested about 370,000 compounds, of which about 150 (0.041%) were called active. Inconclusive means that the source gave no clear call. Such entries were picked first, then a sample of the others. Calls follow the shape of the dose curve; as a rule, active = well fitted inhibition curve with a large enough effect; inconclusive = small, poorly fitted or top-dose-only effect; inactive = flat fitted curve, though single readings scatter. Potencies of inconclusive entries are left out as doubtful fits.

What follows are compounds tested against Beta-lactamase (Escherichia coli (strain K12)) (UniProt P00811) (assay: qHTS Inhibitors of AmpC Beta-Lactamase (assay with detergent)). Conditions: AmpC hydrolysis of nitrocefin, absorbance 480 nm, 0.01% Triton; activity change, negative = inhibition: at 114 µM (top of the series).
Chain of UniProt P00811 (P00811 whole entry, looked up): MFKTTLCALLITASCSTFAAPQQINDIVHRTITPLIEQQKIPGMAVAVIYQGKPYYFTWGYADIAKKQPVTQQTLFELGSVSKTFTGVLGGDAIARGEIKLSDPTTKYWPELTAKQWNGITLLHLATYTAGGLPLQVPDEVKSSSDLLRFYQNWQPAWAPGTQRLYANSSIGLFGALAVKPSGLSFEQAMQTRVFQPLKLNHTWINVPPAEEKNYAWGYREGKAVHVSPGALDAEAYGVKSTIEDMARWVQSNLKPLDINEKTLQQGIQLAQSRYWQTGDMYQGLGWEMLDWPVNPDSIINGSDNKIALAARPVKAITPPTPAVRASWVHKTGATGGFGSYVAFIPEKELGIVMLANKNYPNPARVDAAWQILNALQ
In short: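 AmpC (5.3 nM in the dispensed reagent) in 20 mM phosphate pH 7.0 with 0.01% (detergent screen) or 0.0001% Triton X-100 was preincubated with compounds for 15 min at room temperature. Nitrocefin was then added from an 800 uM solution, and hydrolysis was followed at 480 nm.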
Also: nearly all actives have a fitted effect of over 25% in size.
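For activity change, negative = inhibition in this document: 0% = no-compound wells and -100% = no-enzyme wells.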
Potency is read from the fitted curve at half-maximal effect; tags tell the direction and shape of the fitted curve.

Compound	activity change, negative = inhibition	Potency
CCCCOC(=O)c1ccc(NC(=O)c2ccccc2OC)cc1	inactive: -8.69%	
O=C1CN(C(=O)COC(=O)CCNS(=O)(=O)c2ccc(Cl)cc2)c2ccccc2N1		inconclusive [inhibitor, single point]
Cc1ccc(S(=O)(=O)NCC(=O)N(CC(=O)NCc2ccco2)Cc2cccs2)cc1	inactive: -7.97%	
COc1ccc(CNc2ccccc2)cc1Br	inactive: -3.43%	
CC(=O)Nc1sc2c(c1C(N)=O)CCCC2	inactive: 0.574%	
COc1cc(C(C)=O)ccc1COc1ccc(C(=O)OCC(N)=O)cc1OC		inconclusive [inhibitor, single point]
O=C(NC1CCCCCC1)C(=S)NCc1ccccc1	inactive: 3.19%	
N#Cc1ccc(CN2CCN(C(=O)c3ccccc3)CC2)c(Cl)c1		inconclusive [inhibitor, full curve, poor fit]
Cc1ccc(S(=O)(=O)CC(C)N2CCOCC2)c(S(=O)(=O)CC(C)N2CCOCC2)c1 (centres undefined)		inconclusive [inhibitor, full curve, poor fit]
CC(C)(C)C(=O)Nc1cc(S(=O)(=O)Nc2ccc(Cl)cc2)ccc1Cl		inconclusive [inhibitor, full curve, poor fit]
O=c1[nH]c(=S)[nH]c2c1C(c1ccc(Br)cc1)c1c([nH]c(=S)[nH]c1=O)O2		inconclusive [inhibitor, partial curve]
CCNc1nc(SC(C(C)=O)C(C)=O)nc(N(C)C)n1		inconclusive [inhibitor, partial curve, poor fit]
CCCN1C(=O)/C(=C2/C=Cc3ccccc3N2CC)SC1=S	inactive: 2.63%	
c1ccc(CCn2nnnc2C(c2cccs2)N2CCOCC2)cc1 (centres undefined)		inconclusive [inhibitor, full curve, poor fit]
N#Cc1ccsc1NC(=O)CN1CCCCCC1		inconclusive [inhibitor, full curve, poor fit]
O=C(Oc1ccc(=O)n(-c2ccccc2)n1)c1cccc(Cl)c1		inconclusive [inhibitor, full curve]
Cc1cccc(Nc2nc(-c3ccncc3)cs2)c1	inactive: 4.78%	
COc1cccc(CN(C(=O)c2oc3ccccc3c2C)C2CCS(=O)(=O)C2)c1 (centres undefined)	inactive: 17.4%	
O=S(=O)(c1ccccc1)N1CCN(CC(O)COc2ccc3c(c2)CCC3)CC1 (centres undefined)		inconclusive [inhibitor, partial curve, poor fit]
CN(C)S(=O)(=O)c1ccc(Cl)c(NC(=O)CN2CCC(Cc3ccccc3)CC2)c1		inconclusive [inhibitor, single point]
COc1cccc(C(=O)CC(C#N)c2ccc(F)cc2)c1 (centres undefined)	inactive: 3.39%	
CN(C)/C=C1\C(=O)N(c2ccc(Cl)c(Cl)c2)CS1(=O)=O		inconclusive [inhibitor, full curve, poor fit]

Compound	activity change, negative = inhibition	Potency
Cc1ccc(C(C)C)c(OCC(=O)N2CCN(Cc3nc4cc([N+](=O)[O-])ccc4n3C)CC2)c1	inactive: -4.75%	
CC(C)c1ccc(Nc2c(-c3ccc(N(C)C)cc3)nc3cnccn23)cc1	inactive: -5.4%	
CCN(c1cccc(C)c1)c1nc2ccsc2c(=O)s1	inactive: -7.48%	
COC(=O)c1ccccc1NC(=O)c1cc(-c2ccco2)on1	inactive: -3.03%	
O=C(COc1coc(CN2CCc3ccccc3C2)cc1=O)Nc1cccc(Cl)c1	inactive: -8.59%	
CC(C)CC1=C/C(=C/c2ccc(-c3ccccc3)o2)C(=O)O1		inconclusive [inhibitor, full curve, poor fit]
CCOc1ccccc1-n1nnnc1SCC(=O)NC(=O)NCc1ccco1		inconclusive [inhibitor, full curve, poor fit]
Cc1noc(C)c1CSc1nc2ccccc2[nH]1		inconclusive [inhibitor, full curve, poor fit]
CCS(=O)(=O)c1ccc(O)c(NC(=O)COc2ccc(OC)cc2)c1		inconclusive [inhibitor, full curve, poor fit]
CCOC(=O)Cc1csc(NC(=O)NC2(C(F)(F)F)Oc3ccc(Cl)cc3O2)n1 (centres undefined)		inconclusive [inhibitor, full curve, poor fit]
CN(C(=O)c1ccccc1C(=O)OCC(=O)NCc1ccccc1)C1CCCCC1		inconclusive [inhibitor, partial curve]
CC1(C)Cc2c(c(-c3ccco3)nc3sc4c(NCC5CCCO5)ncnc4c23)CO1 (centres undefined)	inactive: -0.0581%	
COc1ccc(N/C=C\C(=O)c2ccc3ccccc3c2)cc1		inconclusive [inhibitor, partial curve]
Cc1cc(C)c2c(NC(=S)NC(=O)c3ccccc3)nn(C)c2n1		inconclusive [inhibitor, partial curve, poor fit]
Fc1ccc(Cn2nnnc2CN2CCN(C3CCCCC3)CC2)cc1		inconclusive [inhibitor, partial curve]
Cc1ccc(C)c(NC(=O)Cc2coc3cc4c(cc23)CCC4)c1		inconclusive [inhibitor, single point]
Cc1ccc(-c2n[nH]c(=O)c3ccccc23)cc1S(=O)(=O)NCCO		inconclusive [inhibitor, single point]
Cn1nc(N2CCN(S(=O)(=O)c3ccccc3)CC2)c(=O)n(C)c1=O		inconclusive [inhibitor, full curve, poor fit]
Brc1ccc(-c2csc(N3CCc4ccccc4C3)n2)cc1		inconclusive [inhibitor, full curve, poor fit]
COc1ccc(S(=O)(=O)N2CCC(C(=O)N[C@H](C(=O)N3CCCC3)C(C)C)CC2)cc1	inactive: -5.91%	
CN(C)C1(CNC(=O)C2CCC(=O)N(Cc3ccc(Cl)cc3)C2)CCCCC1 (centres undefined)		inconclusive [inhibitor, full curve, poor fit]
COc1ccc(C)c2sc(=NC(=O)C(C)C)n(C)c12		inconclusive [inhibitor, full curve, poor fit]
